Measured values taken from the RNAGym collection of RNA variant scans (doi:10.1093/nar/gkz1192).
The source gives no read counts; variants with many changes may rest on few reads.

B1: CPEB3 Ribozyme (parent)
chain: UAACAGGGGGCCACAGCAGAAGCGUUCACGUCGCAGCCCCUGUCAGAUUCUGGUGAAUCUGCGAAUUCUGCUGUAUAUCUC

Variants of: B1
Assay: self-cleavage, relative activity (ratio to wild type); higher = more cleavage; in vitro, sequencing
In short: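 Relative activity was defined as the cleaved/total read fraction for a variant divided by the same fraction for the unmutated ribozyme. CPEB3 self-cleaving ribozyme libraries were made by rounds of error-prone PCR, barcoded, and transcribed in vitro with T7 RNA polymerase for 5 hours at 37°C, and cleavage ran through transcription plus a 15 min DNase I step before EDTA. Illumina sequencing of template-switched reverse transcripts gave the reads, and DNA sequencing mapped the barcodes. Averages come from three batches, using variants with at least 5 reads.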

Variant | self-cleavage
U1C A45G U51C U72C | 0.48
U1C A35U U51A A64G | 0.26
U1C C11U A47G A56G | 0.25
U1C A45G U69G | 0.21
U1C A45G U69C | 0.19
U1C C37G A45C U51C U66A | 0.07
U1C A47G C59A | 0.4
U1C G6A U48A U54G U69C | 0.17
U1C A28U U51A A64G U66C U72C | 0.05
U1C A45U U69C | 0.1
U1C C38U U72C | 1.1
U1C A28U U49A A56G | 0.26
U1C C4A U69A | 0.95
U1C G6A C34U U49C U72A | 0.06
U1C C32U A35G U41A U80C | 0.06
U1C A28U U51A U72C | 1.01
U1C C17U A18G C34U U80A | 0.09
U1C C29G A45G A57U U76C U80A | 0.05
U1C A45U U49C | 0.19
U1C C11U A28U | 0.3
U1C C11U A35G | 1.15
U1C C29U G63U | 0.3
U1C C50A U80C | 0.85
U1C A35U U49C G52A U54C A56U U60A | 0.15

Variant | self-cleavage
U1C C44U U58C | 0.47
U1C A35G U41C U58C | 0.72
U1C A35U U49C G52A U54C U60A | 0.16
U1C C29U U60A | 0.22
U1C C11U A20G A47G U49C A56G A65U | 0.11
U1C A56G U69A | 0.48
U1C C32U U41A | 0.26
U1C C14U A28C G36C U43C U58C | 0.05
U1C C23U A64G | 0.45
U1C A57C U80C | 0.54
U1C A28U U72A | 0.33
U1C C23A C29A U78C | 0.23
U1C C38A U66C U67A | 0.25
U1C C23A C39U C40U | 0.07
U1C C11U A47G A56G U67C | 0.12
U1C A35G U41A U80C | 0.39
U1C C39U U69A | 0.37
U1C C4U U25A U41A | 0.28
U1C C11G C40G U51A A75G | 0.03
U1C C12U A13G A20G A28G | 0.02
U1C A35U C37A U54C A56U U78A | 0.14
U1C C17G U60C U66C U69A | 0.12
U1C C12A A18U A21G U67A | 0.07
U1C A35U U49C U67C U76G U78C | 0.05

Variant | self-cleavage
U1C C11G U26A U49A U66C U74A U80A | 0.04
U1C C11G U69A U72C U78C | 0.09
U1C A56G U72A | 0.45
U1C C17U U54C U58A U72A | 0.38
U1C A28U U43A A45G | 0.4
U1C G6A A28G C34A A35U U51A | 0.24
U1C C11U G24C U67C | 0.06
U1C C17U C34U A35G | 0.26
U1C G6A A47G U58C A75G | 0.07
U1C A47G U48A U60A | 0.09
U1C A65G U72A | 0.25
U1C C17G A20G U41C | 0.46
U1C C4G C12U A20G A35U C39U U43C | 0.26
U1C C11G A20G | 0.49
U1C C39U G46A A64G U69C | 0.13
U1C C37U A65G C71A A77G | 0.09
U1C A56G C68U | 0.4
U1C C14A A20U U66A A75G | 0.12
U1C C23G A45U U78C | 0.21
U1C C38U U67A | 0.3
U1C C12U U25A C40A U54A U72A U78C | 0.06
U1C G6C U31C C32A A35G A65G | 0.05
U1C C44A U54A U60C | 0.33
U1C A35G U72C | 1.24

Variant | self-cleavage
U1C A35U U41C U43A | 0.16
U1C A35G U49C U58A U72A | 0.26
U1C C4U A15G U31C A47U U49C | 0.58
U1C G6A U25C U41A A45G U60A A65G | 0.05
U1C C11A U25C A57U | 0.04
U1C C62A U66C | 0.25
U1C A64G A77U C81G | 0.75
U1C A45G U51C C68U | 0.32
U1C C50A U72C | 1.01
U1C A35G U41C U43A U69A | 0.78
U1C C11U A18G A28G G36A U41A | 0.04
U1C C23U U26A A65G U80C | 0.06
U1C C32U U49A A57G | 0.12
U1C C4U A15G C40A A45G U51A | 0.22
U1C G6A C39U U48C | 0.26
U1C A35G U43C A45U A47G U78A U80C | 0.55
U1C A56G A57U U58C A64G | 0.14
U1C A45G A57G | 0.43
U1C A45G A57C | 0.35
U1C C4G A21G U25C A45G U51C U69A | 0.19
U1C C11U U80A | 0.45
U1C A47U A57G A64G | 0.21
U1C C27G U58C U69A U74G A75U | 0.16
U1C G6A A13G A21G G22C U54C | 0.02

Variant | self-cleavage
U1C A35U U66C | 0.17
U1C C32U A45C A57G A75G | 0.19
U1C C4A C11U A47G A56G U76A | 0.07
U1C A45G U66C | 0.29
U1C A45G U51C U60G U72C | 0.14
U1C C27A A28G C34A G36A | 0.06
U1C C23G U43A U80C | 0.06
U1C C27U U43A | 0.29
U1C G6A C39U | 0.53
U1C A64U U69C | 0.21
U1C C38A U54C U60C U80C | 0.24
U1C A45G U54C | 0.54
U1C C12U A77U | 1.26
U1C A45U A77G | 0.51
U1C C12A C14U C17G U58C U60A U66C | 0.05
U1C A35C U48C | 0.26
U1C A45G A64U | 0.11
U1C C17A U41C | 0.45
U1C A47G U48C | 0.28
U1C C17G U26A U41C | 0.07
U1C A45G A57G C68U G73C | 0.75
U1C A65G U67C | 0.47
U1C C71G U72C | 0.15
U1C C11G U51C | 0.63

Variant | self-cleavage
U1C C14U A15G A28G C32U U72C | 0.11
U1C C32G U43A A45U A57G | 0.05
U1C C4G A47G | 1.12
U1C A56G U72A U74C | 1.07
U1C C14U A20U A45U U49C A75U | 0.03
U1C C37A A45G U60A | 0.23
U1C C4A G10A A21G U80C | 0.06
U1C A35G U41A U51A | 0.46
U1C A45G C50A | 0.47
U1C C23G U31C C59G G63U U69C | 0.03
U1C A35G U51A U69A | 1.23
U1C C11U A56G | 0.08
U1C A56C G73A | 1.02
U1C C40U U72C U80C | 0.82
U1C C11A U25A U66C | 0.19
U1C C38U U49C | 0.49
U1C C11U C29G A65G U78C | 0.06
U1C A28U U31A C62A | 0.27
U1C C44A U69C U76C | 0.07
U1C A35G U41C U72A | 1.17
U1C G6U G9U U25A U31C U48G | 0.04
U1C G6A C11G U41A U76A U78A | 0.08
U1C A56U C68A U69C | 0.18
U1C C34G U69A U76C | 0.06

Variant | self-cleavage
U1C A28U U31A A35G | 1.05
U1C A35U A65G U69C U72A | 0.17
U1C C11U A18G U25C G46C G53C U60C | 0.23
U1C C4U U25C C29U A56U | 0.09
U1C C12U C44U U60A | 0.11
U1C C11A A20G G24A U31C | 0.05
U1C C37G C40A G42U | 0.28
U1C G6A A21U C71U | 0.05
U1C C11G C12G C40U | 0.19
U1C C29G A47G C50A | 0.27
U1C C12U U60A A77G | 0.25
U1C A45G A47G | 0.33
U1C G6A A13U G16C C34U U41A U80C | 0.03
U1C C14G U31A U54C U60C A65G U69C | 0.05
U1C A45U U72A | 0.17
U1C A35G G53A U80C | 1.24
U1C C12U A18U U78C | 0.41
U1C A45U A47G U69C | 0.42
U1C A28U U43A | 1.03
U1C A35U C40U | 0.14
U1C A56C U72A | 0.25
U1C A56U U58C A64G | 0.16
U1C A35G U48A A65G | 0.35
